Experimental data from PubChem BioAssay AID485294 (National Center for Advancing Translational Sciences (NCATS), 2010).
Out of some 370,000 compounds screened, about 150 (0.041%) were called active. The shares of active, inactive and inconclusive entries below differ from those in the screen. The call rests on the fitted dose curve; in most records, active means well fitted inhibition curve with a large enough effect; inconclusive means small, poorly fitted or top-dose-only effect; inactive means flat fitted curve, though single readings scatter. Potencies of inconclusive entries are left out as doubtful fits.
Further: nearly all actives have a fitted effect of over 25% in size.
Potency means the concentration at half of the fitted maximal effect; tags describe the fitted curve by direction and shape.
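Wherever activity change, negative = inhibition is given: 0% = no-compound wells and -100% = no-enzyme wells.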

What follows are compounds tested against Beta-lactamase (Escherichia coli (strain K12)) (UniProt P00811) (assay: qHTS Inhibitors of AmpC Beta-Lactamase (assay with detergent)). Conditions: AmpC hydrolysis of nitrocefin, absorbance 480 nm, 0.01% Triton; activity change, negative = inhibition: at 114 µM (top of the series).
Chain of UniProt P00811 (P00811 whole entry, looked up): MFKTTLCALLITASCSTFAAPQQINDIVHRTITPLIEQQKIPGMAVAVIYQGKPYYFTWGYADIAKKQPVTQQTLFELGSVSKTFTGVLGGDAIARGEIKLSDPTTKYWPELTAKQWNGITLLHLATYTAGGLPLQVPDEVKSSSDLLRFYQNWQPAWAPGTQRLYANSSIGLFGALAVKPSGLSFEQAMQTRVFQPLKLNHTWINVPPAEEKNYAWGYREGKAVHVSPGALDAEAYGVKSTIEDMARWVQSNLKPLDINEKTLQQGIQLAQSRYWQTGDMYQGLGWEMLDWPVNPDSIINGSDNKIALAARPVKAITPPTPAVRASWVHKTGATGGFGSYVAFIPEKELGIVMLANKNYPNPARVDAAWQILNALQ
Summary of the method: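 20 mM phosphate pH 7.0 + 0.01% (detergent screen) or 0.0001% Triton X-100; 5.3 nM AmpC reagent; cpd preinc 15 min RT; nitrocefin (800 uM stock) to start; A480 q20 s × 4 min; Activity was normalised to no-enzyme and no-compound control wells.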
With `Cc1nc2ncnn2c(C)c1CCC(=O)O` the Potency was inconclusive [inhibitor, single point]. `O=C(c1ccncc1)N1CCCC(N2CCN(c3cccc(C(F)(F)F)c3)CC2)C1` (stereo not drawn) was tested, and the “activity change, negative = inhibition” value was inactive: 3.57%. For `O=C(COC(=O)c1cc(=O)[nH]c2ccccc12)NC(=O)c1ccccc1`, the Potency was inconclusive [inhibitor, full curve, poor fit]. For `CC1CCc2c(sc3nc(CN4CCOCC4)nc(N4CCc5ccccc5C4)c23)C1` (stereo not drawn), the “activity change, negative = inhibition” value was inactive: -10.8%. In the case of `CN(CC(=O)N1CCc2[nH]c3ccc(F)cc3c2C1)CC1OCCO1`, the Potency is reported as inconclusive [inhibitor, full curve, poor fit]. With `COc1cnc(NS(=O)(=O)c2ccc(N)cc2)nc1` the Potency was inconclusive [inhibitor, full curve, poor fit]. `COc1ccc(Nc2nc(NN)nc(Nc3ccc(OC)cc3)n2)cc1` was tested, and the Potency was inconclusive [inhibitor, partial curve, poor fit]. For `COc1ccccc1NS(=O)(=O)c1cc(NC(=O)c2[nH]c(C)c(C(C)=O)c2C)ccc1N1CCOCC1`, the Potency was inconclusive [inhibitor, single point]. In the case of `O=C(NCCCN1CCOCC1)c1ccccc1-c1ccccc1`, the Potency is reported as inconclusive [inhibitor, full curve]. In the case of `O=C(O)c1ccc2c(c1)C(=O)N(CCCCCCCN1C(=O)c3ccc(C(=O)O)cc3C1=O)C2=O`, the Potency is reported as inconclusive [inhibitor, full curve]. `Cn1c(SCC(=O)Nc2ccc3c(c2)OCCO3)nnc1-c1ccncc1` was tested, and the “activity change, negative = inhibition” value was inactive: -8.69%. For `COc1ccc(CN2CCSCC2)c(C)c1C`, the Potency was inconclusive [inhibitor, partial curve, poor fit]. `O=C(Nc1ncc(C(F)(F)F)cc1Cl)C1COc2ccccc2O1` (stereo not drawn) was tested, and the Potency was inconclusive [inhibitor, single point]. With `Cc1ccc(Cc2nnc(SCC(=O)Nc3ccccc3Cl)[nH]c2=O)cc1` the Potency was inconclusive [inhibitor, full curve]. In the case of `COc1ccc(OC)c(NC(=O)CCNS(=O)(=O)c2ccc3c(c2)oc(=O)n3C)c1`, the Potency is reported as inconclusive [inhibitor, partial curve, poor fit]. `COc1ccc(S(=O)(=O)N(CCCN2CCOCC2)Cc2ccc(OC)c(OC)c2)cc1` was tested, and the Potency was inconclusive [inhibitor, partial curve, poor fit]. With `Cc1cc(/C=C2/NC(=O)N(Cc3ccccc3F)C2=O)c(C)n1C` the Potency was inconclusive [inhibitor, full curve, poor fit]. For `Cc1ccc(C)c(CN2CCC(CNC(=O)CCc3nnc4ccc(N5CCC(C)CC5)nn34)CC2)c1`, the “activity change, negative = inhibition” value was inactive: 0.596%. With `O=C(CN1CCN(c2ccccc2F)CC1)NC(=O)NCc1ccco1` the “activity change, negative = inhibition” value was inactive: -3.46%. With `OCCn1c(-c2ccc3c(c2)OCO3)csc1=Nc1ccccc1` the Potency was inconclusive [inhibitor, single point]. `O=c1[nH]c(-c2ccc(O)cc2)nc2scc(-c3cccs3)c12` was tested, and the “activity change, negative = inhibition” value was inactive: 0.28%. `COc1ccc(-c2nsc3c(SCc4ccccc4)ncnc23)cc1` was tested, and the “activity change, negative = inhibition” value was inactive: 5.37%. `CCn1c(CNC(=O)COC)nc2ccccc21` was tested, and the Potency was inconclusive [inhibitor, full curve]. In the case of `COc1cc(CN(C)CC(=O)c2[nH]c(C)c(C(C)=O)c2C)ccc1OC(F)F`, the “activity change, negative = inhibition” value is reported as inactive: -3.16%. `CCc1ccc(S(=O)(=O)c2cn(CC)c3cc(N4CCCCC4)c(F)cc3c2=O)cc1` was tested, and the “activity change, negative = inhibition” value was inactive: 2.53%. In the case of `CCc1c(C)nc(SCC(=O)c2ccc(C)c(C)c2)[nH]c1=O`, the Potency is reported as inconclusive [inhibitor, full curve, poor fit]. For `Cc1ccc(S(=O)(=O)CCC(=O)Nc2cc(Cl)ccc2-n2cncn2)cc1`, the Potency was inconclusive [inhibitor, partial curve, poor fit]. For `COc1ccc2nc(NC(=O)c3cc(=O)c4cc(C)cc(C)c4o3)sc2c1`, the “activity change, negative = inhibition” value was inactive: -2.06%. With `CC(C)(C)N1CSC(=S)N(Cc2ccccc2)C1` the “activity change, negative = inhibition” value was inactive: 1.42%. In the case of `Cc1c(C(=O)N2CCc3ccccc3C2)oc2ccc(Br)cc12`, the “activity change, negative = inhibition” value is reported as inactive: -10.2%. `CCOc1ccccc1NC(=O)CN(C)S(=O)(=O)c1cccc2nsnc12` was tested, and the Potency was inconclusive [inhibitor, partial curve, poor fit]. With `CCOc1ccc(CNC(=O)CCS(=O)(=O)c2cc3c4c(c2)CCN4C(=O)CC3)cc1OC` the “activity change, negative = inhibition” value was inactive: -10.7%. In the case of `O=C(CCc1ccc(S(=O)(=O)NC2CCCCC2)cc1)Nc1ccccc1`, the “activity change, negative = inhibition” value is reported as inactive: -8.23%. `COCCn1cnc2c1c(=O)n(CC(=O)Nc1cc(C)on1)c(=O)n2Cc1ccccc1` was tested, and the Potency was inconclusive [inhibitor, partial curve, poor fit]. In the case of `COc1cc(S(=O)(=O)N(CCc2ccccc2)Cc2cccs2)ccc1-n1cnnn1`, the “activity change, negative = inhibition” value is reported as inactive: -5.95%. With `CCN(Cc1ccncc1)Cc1ccc(OC)c(OC)c1` the Potency was inconclusive [inhibitor, partial curve, poor fit]. With `CC(=O)COC(=O)c1cccc(N2C(=O)C3C4C=CC(C4)C3C2=O)c1` (stereo not drawn) the Potency was inconclusive [inhibitor, full curve, poor fit]. In the case of `CN(CC(=O)NCc1ccco1)CC(=O)Nc1c(Cl)cccc1Cl`, the Potency is reported as inconclusive [inhibitor, full curve, poor fit]. With `CCOC(=O)C1CCCN(C(=O)Cn2sc3nc(C)cc(C)c3c2=O)C1` (stereo not drawn) the Potency was active: 44.7 µM. With `CC(=O)Nc1nonc1-c1nc2ccccc2n1Cc1nnc(C)o1` the Potency was inconclusive [inhibitor, full curve, poor fit]. In the case of `COc1ccccc1NC(=O)NNC(=O)CCc1ccccc1`, the Potency is reported as inconclusive [inhibitor, partial curve, poor fit]. With `CCOc1ccc(NC(=O)CN(C)C(=O)c2c(-c3ccccc3)noc2C)cc1OCC` the Potency was inconclusive [inhibitor, full curve, poor fit]. In the case of `Cc1ccc(P(=Nc2ccccc2)(N2CCOCC2)N2CCOCC2)o1`, the Potency is reported as inconclusive [inhibitor, full curve, poor fit]. `Cc1ccc(-n2ncc3c(NC4CCCCC4)ncnc32)cc1Cl` was tested, and the “activity change, negative = inhibition” value was inactive: 1.18%. With `CCOc1cc(CNC(=O)c2ccc3c(c2)N(C)C(=O)C2CCCCN32)ccc1OC` (stereo not drawn) the “activity change, negative = inhibition” value was inactive: 16.7%. `COc1ccc(NC(=O)C2C3C=CC(O3)C2C(=O)NCc2cccnc2)cc1` (stereo not drawn) was tested, and the Potency was inconclusive [inhibitor, full curve, poor fit]. `O=C(Nc1ccc(Cl)cc1)NC1CCCCC1` was tested, and the Potency was inconclusive [inhibitor, full curve]. `CCN(CC)CCCn1c(=S)[nH]c2ncccc2c1=O` was tested, and the Potency was inconclusive [inhibitor, full curve, poor fit]. `COc1ccc(NC(=O)CN(C)C(=O)c2cn(-c3ccccc3)nc2-c2cccs2)cc1` was tested, and the Potency was inconclusive [inhibitor, full curve, poor fit]. For `CCC(=O)Nc1ccc(C(=O)n2ccc(C)n2)cc1`, the Potency was inconclusive [inhibitor, full curve]. For `N#CC(c1cccc(Cl)c1)c1ccc2c(C(F)(F)F)cc(C(F)(F)F)nc2n1` (stereo not drawn), the “activity change, negative = inhibition” value was inactive: 0.635%. With `O=C(CSc1nc2ccccc2c(=O)[nH]1)N1CCCCC1` the Potency was inconclusive [inhibitor, full curve, poor fit]. `CCOC(=O)c1sc(=S)n(Cc2ccccc2)c1C` was tested, and the “activity change, negative = inhibition” value was inactive: 6.38%. With `CC1CCN(C(=O)C(C)NCc2ccc(F)cc2)CC1` (stereo not drawn) the Potency was inconclusive [inhibitor, full curve, poor fit]. With `CN(C)S(=O)(=O)c1cc(NC(=O)COC(=O)C2COc3ccccc3O2)ccc1Cl` (stereo not drawn) the Potency was inconclusive [inhibitor, full curve]. `NC(=O)NC1CCCc2c1[nH]c1ccc(Cl)cc21` (stereo not drawn) was tested, and the Potency was inconclusive [inhibitor, full curve, poor fit]. `CCc1ccc(NC(=O)c2ccc3nc(N)sc3c2)cc1` was tested, and the “activity change, negative = inhibition” value was inactive: -4.44%. In the case of `O=c1cc(N2CCCCC2)c(-c2ccccc2)nn1Cc1c(Cl)cccc1Cl`, the Potency is reported as inconclusive [inhibitor, partial curve, poor fit]. In the case of `COc1cc(/C=C/C(=O)N2c3ccccc3Sc3ccc(C(F)(F)F)cc32)cc(OC)c1OC`, the Potency is reported as inconclusive [inhibitor, full curve]. With `c1ccc(N2CCN(c3nc(-c4ccccn4)nc4ccccc34)CC2)cc1` the “activity change, negative = inhibition” value was inactive: -3.22%. With `CCCCn1c(=N)n(CCOc2ccc(C)cc2)c2ccccc21` the Potency was inconclusive [inhibitor, full curve]. `CCCCn1c(N)c(N(CC(C)C)C(=O)C2CCCO2)c(=O)[nH]c1=O` (stereo not drawn) was tested, and the Potency was inconclusive [inhibitor, full curve, poor fit]. In the case of `O=C1CC(N2CCN(c3ccccc3F)CC2)C(=O)N1c1ccc2c(c1)OCCO2` (stereo not drawn), the Potency is reported as inconclusive [inhibitor, single point]. In the case of `O=C(CSCCO)Nc1nccs1`, the Potency is reported as inconclusive [inhibitor, full curve, poor fit]. `COc1ccc([N+](=O)[O-])cc1NC(=S)Nc1ccccc1` was tested, and the “activity change, negative = inhibition” value was inactive: 4.45%. In the case of `CC(=O)Nc1ccc2c(CSc3nnc(-c4cccnc4)n3-c3ccc(C)cc3C)cc(=O)oc2c1`, the Potency is reported as inconclusive [inhibitor, full curve]. In the case of `COc1cccc(CNC(=O)CN(C)S(=O)(=O)c2ccc(Br)s2)c1`, the Potency is reported as inconclusive [inhibitor, partial curve, poor fit]. In the case of `COC(=O)[C@@H](NC(=O)O[C@@H]1C(=O)c2ccc(OC)cc2O[C@H]1c1cccc(C(F)(F)F)c1)C(C)C`, the Potency is reported as inconclusive [inhibitor, full curve, poor fit].
